PubChem BioAssay AID1671188 (National Center for Advancing Translational Sciences (NCATS), 2021)
Screen size: about 100,000 compounds; about 250 (0.25%) were called active. Inconclusive means that the source gave no clear call. Such entries were picked first, then a sample of the others. Calls come from the whole dose curve; as a rule, active = well fitted inhibition curve with a large enough effect; inconclusive = small, poorly fitted or top-dose-only effect; inactive = flat fitted curve, though single readings scatter. Potencies of inconclusive entries are left out as doubtful fits.

target: Alanine aminotransferase 2 (Homo sapiens) (UniProt Q8TD30); test: Primary qHTS assay for inhibitors of Glutamate pyruvate transaminase 2 (GPT2); settings: Recombinant GPT2, coupled pyruvate oxidase/HRP Amplex Red fluorescence; series mostly up to 57.7 µM; note: nearly all actives have a fitted effect of over 60% in size
Chain of UniProt Q8TD30 (Q8TD30 whole entry, looked up): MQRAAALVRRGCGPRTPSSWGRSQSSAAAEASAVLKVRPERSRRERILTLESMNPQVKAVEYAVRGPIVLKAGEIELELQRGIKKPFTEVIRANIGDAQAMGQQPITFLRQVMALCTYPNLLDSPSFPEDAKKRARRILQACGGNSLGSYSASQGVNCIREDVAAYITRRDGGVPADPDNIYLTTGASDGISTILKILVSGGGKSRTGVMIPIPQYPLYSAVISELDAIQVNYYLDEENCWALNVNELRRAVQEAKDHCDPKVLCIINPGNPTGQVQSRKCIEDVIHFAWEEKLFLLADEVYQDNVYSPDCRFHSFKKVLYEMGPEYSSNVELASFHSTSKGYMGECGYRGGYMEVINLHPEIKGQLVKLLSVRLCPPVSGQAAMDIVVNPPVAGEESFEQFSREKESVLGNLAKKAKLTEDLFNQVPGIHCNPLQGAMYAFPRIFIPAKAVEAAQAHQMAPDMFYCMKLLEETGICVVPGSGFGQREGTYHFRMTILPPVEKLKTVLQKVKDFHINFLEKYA
Procedure, shortened: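 GPT2 10ng/uL, a-KG 250uM, L-Ala 2mM, HEPES pH7.5 + 0.0001% Tween; 30 min RT. Then Amplex mix (PO/HRP/ThPP), 30 min RT dark, fluorescence. AOA 50uM used as positive control.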
Potency is the fitted concentration of half-maximal effect; tags give direction and shape of the fitted curve.

Row | Structure (SMILES) | Potency
1 | COc1ccc(C(=O)N2CCC3(CC(C(C)C)=NO3)C2)cc1 (configuration not stated) | inactive
2 | O=C(O)C1CCc2sc(C(=O)N3CCCCCC3)cc2C1 (configuration not stated) | inactive
3 | C#CCNC(=O)c1nc(-c2ccsc2)c2cnccn12 | inactive
4 | COc1ccccc1N1CCN(CC[C@H]2CN(C(=O)Nc3ccc(C(F)(F)F)cc3)CC[C@H]2CC(=O)O)CC1 | inconclusive [inhibitor, single point]
5 | COc1ccccc1Nc1ccnc(N2CCCC(C(=O)NCCc3ccccc3F)C2)n1 (configuration not stated) | inactive
6 | COC1CN(c2ccc(C)cc2)C12CCN(C(=O)Cc1ccccc1)CC2 (configuration not stated) | inactive
7 | CC(=O)N1CCCC(Cc2ncc(C)n2C(C)C)C1 (configuration not stated) | inconclusive [inhibitor, single point]
8 | CN(C)C[C@@H]1CN(Cc2ccccc2)C[C@H]1NC(=O)C1CC1 | inactive
9 | COCCNC(=O)c1nc2cccnc2n(CC(C)C)c1=O | inconclusive [inhibitor, partial curve, poor fit]
10 | c1cc(NCCc2c[nH]c3ccccc23)cc(Nc2ccncc2)c1 | inconclusive [inhibitor, single point]
11 | COC(=O)C1=C(C)N=C2SC=C(CC(=O)NCC3CCCO3)N2C1c1ccccc1OC (configuration not stated) | inconclusive [inhibitor, single point]
12 | CN1C[C@@H](NC(=O)CC(C)(C)C)C[C@H]1c1nc(-c2ccc(OC(F)(F)F)cc2)no1 | inconclusive [inhibitor, partial curve, poor fit]
13 | COc1ccc(-c2n[nH]c3c2CC(=O)N(Cc2ccccn2)C3)cn1 | inconclusive [inhibitor, single point]
14 | O=C(C1CC1)N1CCCN(c2nc3ncccc3o2)CC1 | inactive
15 | COc1ccc(C(=O)N2CCC3(CC2)CC(OC)CCO3)cc1 (configuration not stated) | inconclusive [inhibitor, partial curve, poor fit]
16 | Cc1ccc(CN2CC[C@@H]3[C@H]2C(=O)NC[C@H](CCC(=O)NCc2ccco2)N3C)cc1 | inconclusive [inhibitor, partial curve, poor fit]
17 | COc1cccc(NC(=O)NC[C@H]2O[C@@H](CC(=O)N3CCc4ccccc43)[C@H](O)[C@@H]2O)c1 | inactive
18 | COCC1CN(C(C)=O)CC12CCN(Cc1cccnc1)CC2 (configuration not stated) | inconclusive [inhibitor, single point]
19 | COc1ccccc1-c1cnc(Nc2cccc(N[S+](C)(=O)[O-])c2)c2c1CCO2 | inactive
20 | N#Cc1ccccc1CN1CC[C@H]2C(=O)NCCCCCCN(Cc3ccncc3)[C@@H]2C1 | inconclusive [inhibitor, single point]
21 | C[C@H]1CCCN1C(=O)c1nnc(COc2cccc(C(F)(F)F)c2)n1-c1ccccc1 | inactive
22 | O=C(NC1CCN(c2cc(-c3ccccc3)[nH]n2)C1)c1ccc2cc[nH]c2c1 (configuration not stated) | inconclusive [inhibitor, partial curve, poor fit]
23 | O=C(CCN1CCCCO1)N1CCCC(CCc2ccc(F)c(F)c2)C1 (configuration not stated) | inconclusive [inhibitor, full curve]

Row | Structure (SMILES) | Potency
24 | CSCCNC(=O)c1ccc2nnc(-c3cccc(OC(F)(F)F)c3)n2c1 | inconclusive [inhibitor, partial curve, poor fit]
25 | COc1ccc(-c2cc(N3CCCN(C(=O)c4ccc(F)c(Cl)c4)CC3)n[nH]2)cc1 | inactive
26 | CCS(=O)(=O)N1CCC2(CCCN(C3CCOCC3)C2=O)C1 (configuration not stated) | inconclusive [inhibitor, single point]
27 | Cc1ccc2oc([C@H]3CCN(C(=O)C4CC4)C3)nc2c1 | inactive
28 | c1ccc(Nc2cc3c(cn2)NCCN(Cc2ccsc2)C3)cc1 | inconclusive [inhibitor, full curve, poor fit]
29 | Cc1ccc(C)c(C(=O)NC2CCN(c3cc(-c4ccc(F)cc4)[nH]n3)C2)c1 (configuration not stated) | inconclusive [inhibitor, partial curve, poor fit]
30 | CCCN(CC1CCOC1)C(=O)c1ccc(F)c(Cl)c1 (configuration not stated) | inconclusive [inhibitor, single point]
31 | CC(=O)N1CCn2cc(C(=O)Nc3ccc(Cl)cc3Cl)nc2C1 | inconclusive [inhibitor, single point]
32 | CCc1ccc(NC(=O)c2cc3n(n2)CC(c2ccc(Cl)cc2)OC3)cc1 (configuration not stated) | inactive
33 | CN(C)C(=O)c1ccc2c(c1)N(C)C(CC(=O)Nc1ccc[nH]c1=O)CO2 (configuration not stated) | inconclusive [inhibitor, partial curve, poor fit]
34 | O=C(NCC1CCN(c2cc(-c3ccc(Cl)cc3)[nH]n2)CC1)c1cc(C2CC2)[nH]n1 | inconclusive [inhibitor, single point]
35 | Cc1noc(C)c1C(C(=O)O)N(C)Cc1nc(-c2ccccn2)no1 (configuration not stated) | inconclusive [inhibitor, single point]
36 | CN(C)CCNC(=O)c1cccnc1OC1CCNCC1 | inactive
37 | COc1cc(OC)cc(C(=O)N2CCCC(n3cc(-c4nc(-c5ccccc5)no4)nn3)C2)c1 (configuration not stated) | inactive
38 | COc1ccc(NC(=O)N2CCCC(c3noc(COc4ccccc4F)n3)C2)c(C)c1 (configuration not stated) | inconclusive [inhibitor, single point]
39 | Cc1nc2scc(CC(=O)N3CCC(C)CC3)n2c(=O)c1-c1cc(C)n(-c2cccc(Cl)c2)n1 | inconclusive [inhibitor, single point]
40 | CCn1nccc1C(=O)Nc1ccc(-c2nnc3n2CCCC3)cc1 | inactive
41 | Cc1nc2ccc(C(=O)NC(C(=O)O)c3c(C)n[nH]c3C)cc2[nH]1 (configuration not stated) | inconclusive [inhibitor, single point]
42 | C=CCN1C[C@@H]2C[C@@H](C(=O)NC)N(C(=O)CCc3ccccc3)c3cccc(c32)C1=O | inconclusive [inhibitor, single point]
43 | Cc1noc(C)c1-c1cc2c(cc(C)n2CCN(C)C)c(-c2ccc(CO)cc2)n1 | inconclusive [inhibitor, single point]
44 | Cc1ccsc1-c1[nH]nc2ncc(-c3ccccc3)nc12 | inconclusive [inhibitor, single point]
45 | O=C(O)[C@@H]1CN(Cc2ccccc2)C[C@@H]1C(=O)N1CCc2ccccc21 | inconclusive [inhibitor, single point]
46 | COCC(=O)NC[C@@H]1C=C(C)[C@H](Cc2nc3ccc(Cl)cc3[nH]2)C[C@H]1C(C)C | inactive

Row | Structure (SMILES) | Potency
47 | O=C(CCc1ccc2c(c1)CCO2)Nc1ccc2c(c1)C(=O)N1CCC[C@H]1C(=O)N2 | inconclusive [inhibitor, single point]
48 | COCC[C@]1(O)CCN(C(=O)Nc2cccc(SC)c2)C[C@H]1C | inactive
49 | CCc1ccc(CNC(=O)c2cc3n(n2)CC(c2ccc4c(c2)OCO4)OC3)cc1 (configuration not stated) | inconclusive [inhibitor, partial curve, poor fit]
50 | Cc1ccc2oc([C@H]3CCN(Cc4ccccn4)C3)nc2c1 | inconclusive [inhibitor, partial curve, poor fit]
51 | CCC/C=C/C=C/C1CC(O)C(O)C(=O)C1CO (configuration not stated) | inconclusive [inhibitor, partial curve, poor fit]
52 | CN(Cc1ccc(-c2ccccc2)cc1)CC1CC1 | inconclusive [inhibitor, single point]
53 | O=C(c1ccc(CN2C(=O)NC3(CCOCC3)C2=O)cc1)N1CCSCC1 | inconclusive [inhibitor, single point]
54 | C[C@H]1[C@@H]2[C@@H](O)C([C@H](C)C(=O)N(C)CCC#N)CC[C@@]2(C)CC[C@@H]1NC(=O)c1ccncc1 (some centres not stated) | inactive
55 | COCCn1c(=O)c(C(=O)NCc2cccc(OC)c2)nc2cccnc21 | inactive
56 | O=C(NCc1cccc(C(F)(F)F)c1)c1ccc2nnc(-c3ccc(F)cc3)n2c1 | inconclusive [inhibitor, single point]
57 | CC(C)CN1CCC(N2CC(Oc3cccc(C(=O)N4CCCC4)c3)C2)CC1 | inactive
58 | Cc1cc(C)c(CNC(=O)c2cc(-c3cnn(C)c3)cc3c2OCCN3C)c(=O)[nH]1 | inactive
59 | CC(=O)c1ccc(C(=O)N2CCC3(CC2)OCCCC3O)s1 (configuration not stated) | inconclusive [inhibitor, single point]
60 | Cc1nc(CC2CCN(C(=O)Cn3cccc(C(F)(F)F)c3=O)CC2)no1 | inconclusive [inhibitor, full curve, poor fit]
61 | COc1cccc(NC(=O)c2cc3c(N4CCSCC4)nc(C)cn3n2)c1 | inconclusive [inhibitor, partial curve, poor fit]
62 | CCCc1cc(CNC(=O)c2ccc(NC3CCOC(C)(C)C3)nc2)on1 (configuration not stated) | inactive
63 | CCS(=O)(=O)N1C[C@@H]2CN(Cc3ncc[nH]3)C[C@]2(C(=O)O)C1 | inconclusive [inhibitor, partial curve, poor fit]
64 | CCCS(=O)(=O)N1CC(N(Cc2cccnc2)CC(C)C)C1 | inactive
65 | O=C1C(O)C2(CCCCC2)N1C1CCN(Cc2ccc(F)c(F)c2)CC1 (configuration not stated) | inconclusive [inhibitor, single point]
66 | CN1CCN(C(=O)CC[C@H]2CNC(=O)[C@@H]3[C@@H](CCN3Cc3ncc[nH]3)N2C)CC1 | inconclusive [inhibitor, single point]
67 | O=C(Nc1cccc(-n2cccn2)c1)C1CCCN1C(=O)c1ccsc1 (configuration not stated) | inconclusive [inhibitor, single point]
